Where “and” joins values, the source holds several entries; their conditions need not be identical. Equal entries are not always repeated. The campaign covered roughly 48,000 compounds. About 1,200 (2.5%) were called active. Roughly 2% stayed inconclusive and do not appear here.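 How the source made its calls: active means activation of at least 60% and not above a set upper limit (about 1 call in 100 departs from these limits); inconclusive means activation of 40% to 60%, or above that upper limit; inactive means activation under 40%.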 The list shows a part of the results.
Molecular target: Probable G-protein coupled receptor 32 (Homo sapiens) (UniProt O75388)
Sequence of UniProt O75388 (O75388 whole entry, looked up): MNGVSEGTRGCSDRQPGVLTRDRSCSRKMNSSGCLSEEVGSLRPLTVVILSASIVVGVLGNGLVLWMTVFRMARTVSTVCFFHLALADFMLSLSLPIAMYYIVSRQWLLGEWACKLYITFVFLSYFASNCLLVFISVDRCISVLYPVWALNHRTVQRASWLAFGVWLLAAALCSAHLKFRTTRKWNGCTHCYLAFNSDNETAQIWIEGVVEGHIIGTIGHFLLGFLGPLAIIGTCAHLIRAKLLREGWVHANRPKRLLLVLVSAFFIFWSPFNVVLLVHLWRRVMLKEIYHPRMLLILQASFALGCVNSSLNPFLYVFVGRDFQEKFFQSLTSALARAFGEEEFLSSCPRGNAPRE
Experiment: qHTS for Agonists of Human Resolvin D1 Receptor DRV1; further: 0% is about no effect
Settings: CHO-K1 GPR32 beta-arrestin PathHunter luminescence, 90 min; at 76.9 µM; stronger effect = higher value; zero percent set by DMSO-only wells
Summary of the method: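 Agonism was scored by beta-Gal fragment complementation (chemiluminescent read, 1 h detection at ambient temperature) reporting beta-arrestin binding to GPR32 in engineered CHO-K1 cells. Compound treatment lasted 90 min at 37 C, normalized to a DMSO basal control.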

activation, active:
CCN(CC)c1ccc(NC(=O)c2cccn2-c2nnc(N3CCCCC3)s2)c(C)c1 76.5%
CCOc1ccccc1NC(=O)c1c(NC(=O)COc2ccccc2)sc2c1CCCC2 105%

activation, inactive:
O=C(NC(=O)c1cccc(F)c1)Nc1ccc(-c2cc(C(F)(F)F)nn2-c2ccccc2)cc1 8.25%
Cc1ccc(C(=O)Nc2nnc(S(=O)(=O)N3CCOCC3)s2)cc1 38.6%
COC(=O)c1ccc(NC(=O)C2(S(=O)(=O)c3ccc(C)cc3)CC2)cc1 -12.3%
COC(=O)c1sc(-c2ccccc2)cc1NC(=O)c1cccc(F)c1 3.18%
Cc1ccc(CN2CCCn3nc(C(=O)NCCC(C)C)cc3C2=O)cc1 0.143%
O=C(NCc1ccc(F)cc1)C1CCN(C(=O)c2ccc(-n3ccc4ccccc43)s2)CC1 -10.3%
Oc1c(I)cc(I)c2cccnc12 -44.8%
CC1CCN(c2nc3c(S(=O)(=O)c4ccccc4)nnn3c3ccsc23)CC1 -2.62%
COc1ccccc1NC(=O)CCCOc1cc(=O)n(C)c2ccccc12 0.253%
CCc1ccccc1NC(=O)c1cc(S(=O)(=O)N(CC)c2ccccc2)ccc1F -22.4%
COc1ccc(-c2nc(C)c(CCNC(=O)C(=O)Nc3cccc(F)c3)s2)cc1OC 19.8%
COc1ccc(CCNC(=O)c2nn(-c3ccc(C)cc3)c(=O)c3c2c2ccccc2n3C)cc1OC 14.1%
O=C(CC1N=C2c3ccccc3N=C(SCC(=O)Nc3cccc(C(F)(F)F)c3)N2C1=O)NCc1cccs1 (centres undefined) -19.9%
CCc1ccccc1NC(=O)Nc1nnc(N2CCCC2)s1 -0.636%
CCc1ccc(CN(Cc2ccco2)C(=O)c2ccccc2Cl)cc1 -22%
CCOC(=O)CCn1nc(-c2ccc(C)cc2)c2ccccc2c1=O 10.6%
Cc1ccc(C)c(Cn2c(=O)n(Cc3ccccc3)c(=O)c3c(C)c(C)sc32)c1 -15.3%
Cc1ccc(C(=O)COC(=O)c2cc(-c3ccccc3)nc3ccccc23)cc1C -9.34%
COc1cc(NC(=O)Cn2c(=O)n(Cc3ccccc3OC)c(=O)c3cccnc32)cc(OC)c1 -0.717%
Cc1ccc(C)c(N2CCN(S(=O)(=O)c3ccc4oc(=O)c5ncn(C)c5c4c3)CC2)c1 -2.93%
Cc1ccc(S(=O)(=O)c2nnn3c2nc(NCc2ccc(F)cc2)c2sccc23)cc1 -15.3%
CCCNC(=O)c1ccc2c(c1)N(Cc1cccc(C)c1)C(=O)c1ccccc1S2 -37.8%
COc1ccc(NC(=O)CCN2CCN(c3cccc(Cl)c3)CC2)cc1 47%
Cc1ccc(Cn2c(=O)n(CCCCC(=O)NCCc3ccc(Cl)cc3)c(=O)c3ccccc32)cc1 5.61%
Cn1c(=O)c2c(n3c4ccccc4nc13)NC(=O)CC2c1ccccc1F (centres undefined) 9.85%
CC1CCc2c(sc3nnn(Cc4ccc(F)cc4)c(=O)c23)C1 (centres undefined) -5.22%
O=C(NCc1ccccc1)c1cc(-c2cccc(Cl)c2)on1 1.76%
Cc1cc(C)cc(OCC(=O)NCC(c2ccc(Cl)cc2)N2CCCCC2)c1 (centres undefined) -43%
COc1ccc(S(=O)(=O)N2CCN(c3ccc(F)cc3)CC2)cc1-c1noc(C)n1 -13.1%
CCc1nnc2c(Nc3ccc(Br)c(C)c3)nc3ccccc3n12 -2.67%
COc1ccc(OC)c(N(CC(=O)NCc2ccccc2)S(=O)(=O)c2ccccc2)c1 -8.02%
CCc1ccccc1NC(=O)Cn1nnc(C(=O)OC)c1C(=O)OC 15.9%
CCN(CC)S(=O)(=O)c1ccc2c(c1)N(CC(=O)Nc1c(C)cccc1C)C(=O)CO2 -17.4%
COC(=O)c1ccc(NC(=O)CC2C(=O)N(c3ccc(Cl)cc3)C(=O)N2Cc2cccs2)cc1 (centres undefined) -24.1%
COc1ccc(NC(=O)CSc2ncc(-c3ccc(Cl)cc3)[nH]2)cc1OC -9.37%
CCc1ccc(NCc2cc3cc4c(cc3n(CC(=O)Nc3ccc(Cl)cc3)c2=O)OCO4)cc1 -39.8%
COc1ccccc1CCNC(=O)c1ccc2c(c1)c(C)c(C)n2C -19.8%
COC(=O)c1cc(NC(=O)CCc2c(C)nc3c4c(C)cc(C)nc4nn3c2C)cc(C(=O)OC)c1 -2.04%
Cc1cc(S(=O)(=O)Nc2cccc(C(=O)O)c2)c(C)c(S(=O)(=O)c2ccccc2)c1 -6.1%
CCOC(=O)c1sc(N2C(=O)c3oc4cc(C)c(C)cc4c(=O)c3C2c2cccc(O)c2)nc1C (centres undefined) 0.191%
CCOC(=O)c1sc2ccccc2c1S(=O)(=O)Nc1ccc(N(C)C)cc1 -12.7%
COc1ccccc1CNC(=O)c1c[nH]c2ccc(S(=O)(=O)Nc3cc(C)cc(C)c3)cc2c1=O -14%
CCCOc1ccc(CNC(=O)CCCn2ncn3c(cc4sc(CC)cc43)c2=O)cc1 7.2%
Cc1ccc(-c2cc(C(=O)Nc3ccc(SC(F)F)cc3)no2)cc1F 9.25%
COc1cccc(NC(=O)CCC(=O)N2Cc3ccccc3Oc3ncccc32)c1 -15.2%
CCNS(=O)(=O)c1ccc(NC(=O)CSc2nc(-c3ccco3)cc(C(F)(F)F)n2)cc1 -24.7%
CCCOc1ccc(NC(=O)CC2C(=O)N(c3ccccc3)C(=O)N2Cc2ccco2)cc1 (centres undefined) -12.8%
Cc1ccc(CNC(=O)CSc2nc3ccsc3c(=O)n2Cc2ccccc2F)cc1 -8.45%
Cc1cccc(Nc2nnc(-c3ccc(C)c(S(=O)(=O)N4CCCCC4)c3)c3ccccc23)c1 22%
Cc1ccc(-n2cc(-c3ccccc3)c3c(N4CCCCC4)ncnc32)cc1 -20.2%
CC(C)OC(=O)c1cccc(NC(=O)Cn2nnc3sc4c(c3c2=O)CCCC4)c1 -35.1%
Cc1ccc(S(=O)(=O)N2CCN(C(=O)c3cc(-c4ccc(Br)cc4)n[nH]3)CC2)c(C)c1 9.41%
N#CC(C#N)=C(N)/C(C#N)=C/c1ccc(O)cc1 -10.9%
Cc1c(Cl)cccc1-n1ncc(C(=O)N2CCN(c3ncccn3)CC2)c1C1CCN(C(=O)OC(C)(C)C)CC1 -12.5%
Cc1ccc(NC(=O)C(Cc2ccccc2)NS(=O)(=O)c2ccc3c(c2)c(=O)n(C)c(=O)n3C)c(C)c1 (centres undefined) -13.4%
CC(Sc1nnc2ccc3ccccc3n12)C(=O)Nc1ccc(Cl)cc1 (centres undefined) 11.2%
COc1cccc(CCNC(=O)c2c(O)nc3c(C)cccn3c2=O)c1 -5.58%
CCCc1cc(=O)[nH]c(Nc2cc(C)ccc2OC)n1 -17.2%
CCc1ccc(NC(=O)CC2C(=O)N(c3cccc(OC)c3)C(=O)N2Cc2ccc(F)cc2)cc1 (centres undefined) -24.9%
COc1cc2nc(N3CCN(C(=O)c4ccco4)CC3)nc(N)c2cc1OC 3.05%
NCCS(=O)(=O)O -0.0312% and 0.534%
Cc1nc2ccn(Cc3ccccc3)c(=O)c2cc1C(=O)N1CCN(c2ccc(F)cc2)CC1 6.98%
COc1ccccc1NC(=O)Cn1c(SCC(=O)Nc2ccc(F)cc2)nc2ccccc21 -26.8%
Cc1cc(NC(=O)n2ncc3c(C)cccc32)ccc1Br -4.63%
CCc1ccc(NC(=O)CC2C(=O)N(c3cccc(C)c3)C(=O)N2Cc2ccc(F)cc2)cc1 (centres undefined) -28.1%
CCOC(=O)c1cnc2cc(-c3ccc(OCC)cc3)nn2c1-c1ccccc1 -16.6%
COCCc1nn2c(=O)cc(COC(=O)C(c3ccccc3)c3ccccc3)nc2s1 -23.9%
CCCCS(=O)(=O)N[C@@H](Cc1ccc(OCCCCC2CCNCC2)cc1)C(=O)O -6.02%
COc1ccc(NC(=O)CSc2nccn2Cc2ccc3c(c2)OCO3)cc1 -11.7%
CCn1cc(C(=O)O)c(=O)c2cnc(N3CCNCC3)nc21 -8.37%
COc1ccc(C)cc1NC(=O)C(=O)NCC(c1cccnc1)N1CCc2ccccc21 (centres undefined) -30.7%
COc1ccc(C2=Nc3ccccc3NC(c3cccs3)=N2)cc1 -22.7%
Cc1cc(C)c(NC(=O)CSc2ccc(-c3ccccn3)nn2)c(C)c1 -3.29%
CN(C)CCNC(=O)CN1C(=O)COc2ccc(S(=O)(=O)N3CCCC3)cc21 -15.3%
Cc1ccc(-n2c3c(cc(C(=O)Nc4ccccc4C(N)=O)c2=O)C(=O)CC(C)(C)C3)cc1 15.8%
O=C1CC(c2ccccc2)Sc2ccccc2N1Cc1ccc(F)cc1 (centres undefined) -28.9%
Cc1ccc(CNC(=O)CSc2ncc3c(n2)-c2cc(Cl)ccc2N(C)S3(=O)=O)cc1 0.0892%
CCCCOc1ccc(CNC(=O)c2cccc(NC(=O)N3CCSc4ncccc43)c2)cc1 3.95%
Cc1c(C(=O)NCc2ccc(Cl)cc2)oc2ccc3c(c12)C(=O)CC(C)(C)O3 -28.3%
COc1nc(C)nc(Cl)c1NC1=NCCN1 -8.98% and -0.819%
O=C(CCc1nc(CN2CCN(S(=O)(=O)c3ccc(Br)cc3)CC2)no1)N1CCCCC1 -19.1%
CCOc1ccccc1C1CC(=O)Nc2c1c(=O)n(C)c1ncnn21 (centres undefined) -5.96%
